# From the supplement of paper PMC9990464
# Structures can show the parent of a compound that is named as a salt. This is one part of the list. Most values come without repeats; read them as rough.
# Test system: KCNR
# Test: area under viability curve (10 nM-1 µM), viability relative to solvent or trametinib-only control (AUC (arbitrary, % viability x concentration range)); higher = less growth inhibition (more viable cells)
# Settings: 72 h compound exposure (96 h after seeding) h; trametinib co-treatment 0 µM
# Description: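 Four neuroblastoma cell lines (KCNR, SKNBE, SJNB8, SKNAS) were seeded in 384-well plates. At 24 h, 1 µM trametinib or DMSO was added, followed by library compounds at 10 nM, 100 nM and 1 µM. Viability was read by MTT at 96 h and normalised to solvent-treated cells (DMSO arm) or to trametinib-only cells (trametinib arm). The area under the 3-point viability curve was computed in GraphPad Prism; units are as given (approx. 100000 = no effect).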
row,Structure (SMILES),area under viability curve
1,C=C(C)[C@@H](CC=C(C)C)C[C@@]12C[C@@H](CC=C(C)C)C(C)(C)[C@@](CC=C(C)C)(C(=O)C(C(=O)c3ccc(O)c(O)c3)=C1O)C2=O [Garcinol],103000
2,CC(C)(F)C[C@H](N[C@@H](c1ccc(-c2ccc(S(C)(=O)=O)cc2)cc1)C(F)(F)F)C(=O)NC1(C#N)CC1 [Odanacatib],100000
3,CC(/C=C/C(=O)NO)=C\[C@@H](C)C(=O)c1ccc(N(C)C)cc1 [Trichostatin A],39500
4,CCc1c2c(nc3ccc(O)cc13)-c1cc3c(c(=O)n1C2)COC(=O)[C@]3(O)CC [7-Ethyl-10-hydroxycamptothecin],3190
5,COc1cc2c(cc1OC)CN(CCc1ccc(NC(=O)c3cc(OC)c(OC)cc3NC(=O)c3cnc4ccccc4c3)cc1)CC2 [Tariquidar],104000
6,C[C@@H](O[C@H]1OCCN(Cc2n[nH]c(=O)[nH]2)[C@H]1c1ccc(F)cc1)c1cc(C(F)(F)F)cc(C(F)(F)F)c1 [Aprepitant],101000
7,Nc1nc(OCc2cc(Br)cs2)c2[nH]cnc2n1 [Lomeguatrib],96000
8,O=Nc1ccc(O)c2ncccc12,101000
9,CCN1CCN(c2ccc(Nc3cc(N(C)C(=O)Nc4c(Cl)c(OC)cc(OC)c4Cl)ncn3)cc2)CC1 [Infigratinib],102000
10,CC(C)C[C@H](NC(=O)[C@@H](Cc1cccc2ccccc12)NC(=O)[C@H](Cc1ccc(O)cc1)NC(=O)[C@H](CO)NC(=O)[C@H](Cc1c[nH]c2ccccc12)NC(=O)[C@H](Cc1cnc[nH]1)NC(=O)[C@@H]1CCC(=O)N1)C(=O)N[C@@H](CCCNC(=N)N)C(=O)N1CCC[C@H]1C(=O)NCC(N)=O [Nafarelin acetate],101000
11,N[C@@]1(C(=O)O)CS(=O)(=O)[C@H]2[C@H](C(=O)O)[C@H]21,103000
12,C=C1C(=O)O[C@@H](CCC)[C@@H]1C(=O)O [Butyrolactone 3],104000
13,CC(C)[C@H](O)C(=O)N[C@@H](C)C(=O)N[C@@H]1C(=O)N(C)CCc2ccccc21 [Semagacestat],104000
14,CC(=O)O[C@H]1C(=O)[C@@]2(C)[C@H]([C@H](OC(=O)c3ccccc3)[C@]3(O)C[C@H](OC(=O)[C@H](O)[C@@H](NC(=O)c4ccccc4)c4ccccc4)C(C)=C1C3(C)C)[C@]1(OC(C)=O)CO[C@@H]1C[C@@H]2O [7-epi-Taxol],17400
15,C[C@@H]1CCN(C(=O)CC#N)C[C@@H]1N(C)c1ncnc2[nH]ccc12 [Tofacitinib],101000
16,Cc1cn([C@H]2C[C@H](O)[C@@H](CO)O2)c(=O)nc1N [2'-Deoxy-5-methylcytidine],105000
17,CC(=O)O[C@@]12CO[C@@H]1C[C@H](O)[C@@]1(C)C(=O)[C@H](O)C3=C(C)[C@@H](OC(=O)[C@H](O)[C@@H](NC(=O)OC(C)(C)C)c4ccccc4)C[C@@](O)([C@@H](OC(=O)c4ccccc4)[C@H]21)C3(C)C [Docetaxel],14800
18,O=C1c2c(O)ccc(O)c2C(=O)c2c(NCCNCCO)ccc(NCCNCCO)c21 [Mitoxanthrone HCl],6120
19,"O=C(O)c1ccnc(C(=O)O)c1 [2,4-Pyridinedicarboxylic acid]",101000
20,Cn1c(=O)n(-c2ccc(C(C)(C)C#N)cc2)c2c3cc(-c4cnc5ccccc5c4)ccc3ncc21 [Dactolisib],47800

# Same assay, conditions: 72 h compound exposure (96 h after seeding) h; trametinib co-treatment 1 µM
row,Structure (SMILES),area under viability curve
1,C=C(C)[C@@H](CC=C(C)C)C[C@@]12C[C@@H](CC=C(C)C)C(C)(C)[C@@](CC=C(C)C)(C(=O)C(C(=O)c3ccc(O)c(O)c3)=C1O)C2=O [Garcinol],105000
2,CC(C)(F)C[C@H](N[C@@H](c1ccc(-c2ccc(S(C)(=O)=O)cc2)cc1)C(F)(F)F)C(=O)NC1(C#N)CC1 [Odanacatib],116000
3,CC(/C=C/C(=O)NO)=C\[C@@H](C)C(=O)c1ccc(N(C)C)cc1 [Trichostatin A],10400
4,CCc1c2c(nc3ccc(O)cc13)-c1cc3c(c(=O)n1C2)COC(=O)[C@]3(O)CC [7-Ethyl-10-hydroxycamptothecin],2880
5,COc1cc2c(cc1OC)CN(CCc1ccc(NC(=O)c3cc(OC)c(OC)cc3NC(=O)c3cnc4ccccc4c3)cc1)CC2 [Tariquidar],102000
6,C[C@@H](O[C@H]1OCCN(Cc2n[nH]c(=O)[nH]2)[C@H]1c1ccc(F)cc1)c1cc(C(F)(F)F)cc(C(F)(F)F)c1 [Aprepitant],106000
7,Nc1nc(OCc2cc(Br)cs2)c2[nH]cnc2n1 [Lomeguatrib],91500
8,O=Nc1ccc(O)c2ncccc12,99700
9,CCN1CCN(c2ccc(Nc3cc(N(C)C(=O)Nc4c(Cl)c(OC)cc(OC)c4Cl)ncn3)cc2)CC1 [Infigratinib],102000
10,CC(C)C[C@H](NC(=O)[C@@H](Cc1cccc2ccccc12)NC(=O)[C@H](Cc1ccc(O)cc1)NC(=O)[C@H](CO)NC(=O)[C@H](Cc1c[nH]c2ccccc12)NC(=O)[C@H](Cc1cnc[nH]1)NC(=O)[C@@H]1CCC(=O)N1)C(=O)N[C@@H](CCCNC(=N)N)C(=O)N1CCC[C@H]1C(=O)NCC(N)=O [Nafarelin acetate],95000
11,N[C@@]1(C(=O)O)CS(=O)(=O)[C@H]2[C@H](C(=O)O)[C@H]21,101000
12,C=C1C(=O)O[C@@H](CCC)[C@@H]1C(=O)O [Butyrolactone 3],103000
13,CC(C)[C@H](O)C(=O)N[C@@H](C)C(=O)N[C@@H]1C(=O)N(C)CCc2ccccc21 [Semagacestat],104000
14,CC(=O)O[C@H]1C(=O)[C@@]2(C)[C@H]([C@H](OC(=O)c3ccccc3)[C@]3(O)C[C@H](OC(=O)[C@H](O)[C@@H](NC(=O)c4ccccc4)c4ccccc4)C(C)=C1C3(C)C)[C@]1(OC(C)=O)CO[C@@H]1C[C@@H]2O [7-epi-Taxol],20600
15,C[C@@H]1CCN(C(=O)CC#N)C[C@@H]1N(C)c1ncnc2[nH]ccc12 [Tofacitinib],99600
16,Cc1cn([C@H]2C[C@H](O)[C@@H](CO)O2)c(=O)nc1N [2'-Deoxy-5-methylcytidine],98400
17,CC(=O)O[C@@]12CO[C@@H]1C[C@H](O)[C@@]1(C)C(=O)[C@H](O)C3=C(C)[C@@H](OC(=O)[C@H](O)[C@@H](NC(=O)OC(C)(C)C)c4ccccc4)C[C@@](O)([C@@H](OC(=O)c4ccccc4)[C@H]21)C3(C)C [Docetaxel],17500
18,O=C1c2c(O)ccc(O)c2C(=O)c2c(NCCNCCO)ccc(NCCNCCO)c21 [Mitoxanthrone HCl],2400
19,"O=C(O)c1ccnc(C(=O)O)c1 [2,4-Pyridinedicarboxylic acid]",100000
20,Cn1c(=O)n(-c2ccc(C(C)(C)C#N)cc2)c2c3cc(-c4cnc5ccccc5c4)ccc3ncc21 [Dactolisib],52200
